In publication PMC12136788:
The list shows a part of the results.

T1: UNK ZnF1-6 (called full-length) (human, UniProt Q9C0B0 30-357)
T1 sequence: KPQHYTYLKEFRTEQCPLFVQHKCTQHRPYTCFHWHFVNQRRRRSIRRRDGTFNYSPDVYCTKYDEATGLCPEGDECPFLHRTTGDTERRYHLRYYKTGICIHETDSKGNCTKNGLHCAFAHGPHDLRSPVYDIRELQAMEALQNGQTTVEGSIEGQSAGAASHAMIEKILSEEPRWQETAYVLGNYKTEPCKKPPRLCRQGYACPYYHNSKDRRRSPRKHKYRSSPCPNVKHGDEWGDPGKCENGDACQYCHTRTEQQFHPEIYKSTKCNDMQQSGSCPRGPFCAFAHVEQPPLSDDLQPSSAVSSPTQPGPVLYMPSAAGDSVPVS

B1: chr11:43494716:43494817:+|3pUTR|ENSG00000052841|unk|FALSE|unique (ssRNA)
RNA: GGGAGUUCUACAGUCCGACGAUCGUUACCCAUCUUGGAAUAAGUUGUGAAUGUCAGCUCCCUCUCUCUGAGGCCUCCAGACUUAGCUCCUCAGGAGGGUAAUGAGCCAAGGUUGAGUGUUUCCAUACAAUGCUUUUACCUUUGCAACAGAGGAUUGAGCAUCA
B2: chr19:3536616:3536717:+|3pUTR|ENSG00000105325|msi1|FALSE|unique (ssRNA)
RNA: GGGAGUUCUACAGUCCGACGAUCACCGCCGCAGGGCCAGGCGGACGGCGUGAGGUUUGUGUUGGGGCUGGUUCUGCCCAUGCUAGGGGGUGGGGGAGCUCCCAGGACAGACCAGCCUUGUUUCUCAUGUAAUGCAGUGACGCUCAACAGAGGAUUGAGCAUCA
B3: chr22:36489384:36489485:-|3pUTR|ENSG00000100350|msi1|FALSE|unique (ssRNA)
RNA: GGGAGUUCUACAGUCCGACGAUCGUGUCACUUGCCACACACUGCCUCAACCUCCCCGCCCCAUUUUCAGCAGGGUUUGGGCUUAGCUACAGAGCCCAAGAGGGUCAGCCCUGCUUAUCAUCAUAGGCCCAGCAGGCUGAUCUCCAACAGAGGAUUGAGCAUCA
B4: chr5:56893553:56893673:+|CDS|ENSG00000095015|unk|FALSE|unique (ssRNA)
RNA: GGGAGUUCUACAGUCCGACGAUCUGCUCCAUCGAUCCCUUCACAUUUGUCUCCUGGUUUACGAGAUGUGGCUCUUCGUUGUUUAGAACUUCAACCUCAGGACAGACCUCCAUCAAGAGAGCUACUGAAGCAUCCAGUCUUUCGCAACAGAGGAUUGAGCAUCA
B5: chr9:128108756:128108857:+|3pUTR|ENSG00000148339|msi1|FALSE|unique (ssRNA)
RNA: GGGAGUUCUACAGUCCGACGAUCAAGGCAGCAGCCCUGGCUCCUUUCCUUUGGCAGGUUGGGGAAGGGCUUGCCCCCAGCCUUAGGAUUUCAGGGUUUGACUGGGGGCGUGGAGAGAGAGGGAGGAACCUCAAUAACCUUGAACAACAGAGGAUUGAGCAUCA
B6: chr12:74541195:74541296:+|3pUTR|ENSG00000253719|msi1|FALSE|bound_elsewhere (ssRNA)
RNA: GGGAGUUCUACAGUCCGACGAUCUGGGGGAAGGGGGGGGUUCUUUAAAAUUUCUGUGGUUUGUGGCUUUUUCUUCCAUACAUUAGUUCCCACCAUCGCAUGCCCAGGGACCACUGCCUGGCAUUAUCGCAUGCUGGGAUCAUCCAACAGAGGAUUGAGCAUCA
B7: ENSG00000070961:be:win_2751|CDS|ENSG00000070961|bound_else_gene|NA|bound_elsewhere_windowed (ssRNA)
RNA: GGGAGUUCUACAGUCCGACGAUCUGGUAGAAAUAAGCCUCUCAUCUCACGUACAAUGAUGAAGAAUAUUUUGGGUCAUGCAUUCUAUCAACUUGUAGUAGUCUUUACACUCUUAUUUGCUGGAGAAAAGUUUUUUGACAUUGACAACAGAGGAUUGAGCAUCA
B8: chr1:165910223:165910324:+|3pUTR|ENSG00000143179|unk|FALSE|unique (ssRNA)
RNA: GGGAGUUCUACAGUCCGACGAUCCCAGCAUUUGGCCAACUCUGUAUCUGAACUUGAGCUUUCUAUGGAACAAACAAUGGUCUUAGUUUUUUAAGAGCCUCUGGGUCUCUGAUUCCAUGGAGAGUCAGGAGUAGAAUUAGUGGACAACAGAGGAUUGAGCAUCA
B9: chr7:44624349:44624495:+|CDS|ENSG00000105953|unk|FALSE|unique (ssRNA)
RNA: GGGAGUUCUACAGUCCGACGAUCAGGCCAUUGACGGCUUCCCAGACUGUUAAGACAUUUUCACAAAACAGACCAGCAGCAGCUAGGACAUUUCAACAGAUUCGGUGCUAUUCUGCACCUGUUGCUGCUGAGCCCUUUCUCAGUCAACAGAGGAUUGAGCAUCA
B10: chr3:180614007:180614920:-|three_prime_utr|ENSG00000284862|control|control|control (ssRNA)
RNA: GGGAGUUCUACAGUCCGACGAUCUUGUAAACACAAAAACAAAAAUAUACUUUAAAAUACAAAACGACCCAACACAUUUUAUCUAGUGGAAAGUGUAAAAACUUAGUGGUAAGUGUAAAAACUGAUAGUUUUAAAAAAAAAGGACAACAGAGGAUUGAGCAUCA
B11: chr5:6668475:6668576:+|3pUTR|ENSG00000145545|unk|total|mutant (ssRNA)
RNA: GGGAGUUCUACAGUCCGACGAUCAUUUUUUCUAAUUUCAAAUUUACCUCUUUUGGCUAUGUCUUGCCAAGUGUGUAUGAGACCCGACUUUACAACUGUCUUUGAUGGCAUUUUCAGAACAAUAAAUGUCACAAUCCCUUCUAUCAACAGAGGAUUGAGCAUCA
B12: chr1:235977234:235977335:-|3pUTR|ENSG00000116962|msi1|total|mutant (ssRNA)
RNA: GGGAGUUCUACAGUCCGACGAUCGUCUAAGACCCCCAUUAUAAUAUUCAUGCGCUGCUUUUUCAUCAAAACCUACCCUGUCCCCGAGAUCUAUGGGCAUUUGGUGGAUGAUAAUGAGCAGCCCCUCCCAGACCGAAUGUCAAUCAACAGAGGAUUGAGCAUCA
B13: chr12:95514132:95514176:+|3pUTR|ENSG00000111142|msi1_unk|total|mutant (ssRNA)
RNA: GGGAGUUCUACAGUCCGACGAUCCUUUUAAAUGCUAACUGUUUUUCCCCUUCCUGUCCCGGAAAAUGCUAUAAAGCUCAAAUCCGUCCGGAAUGACUUAUACGUUUUGUUUUGAAUACCUAAGAGAUACUUUUUGGAUAUUUACAACAGAGGAUUGAGCAUCA
B14: chr20:62294722:62294823:+|3pUTR|ENSG00000130703|unk|total|mutant (ssRNA)
RNA: GGGAGUUCUACAGUCCGACGAUCCGCACACCGCGUCCGUGUCUCCAGGGGGUUCCUUUCUUCUCACACGUCGCGUGUACCCACCGCACUCUUGUGUUUCUGUUUUUCCCAGUAUGCAUGUUUAAAACCGAAGUGACAAGAAUCCAACAGAGGAUUGAGCAUCA
B15: chr11:102867907:102868069:-|CDS|ENSG00000262406|control|control|control (ssRNA)
RNA: GGGAGUUCUACAGUCCGACGAUCACAAACUUGUUCCUCACUGCUGUUCACGAGAUUGGCCAUUCCUUAGGUCUUGGCCAUUCUAGUGAUCCAAAGGCCGUAAUGUUCCCCACCUACAAAUAUGUUGACAUCAACACAUUUCGCCAACAGAGGAUUGAGCAUCA
B16: chr17:81557321:81557422:-|3pUTR|ENSG00000182446|msi1|FALSE|unique (ssRNA)
RNA: GGGAGUUCUACAGUCCGACGAUCAGCAUUUCCCUUACUCUGAAGUUCCGGCAUUCACAUCAUUCAUGUUUUCUUUUGUCUUUUAGCUAAAGGAAAAGCAUUGGCGAUUUGUCUGAUUCUGGUUUUGAGUUACUCUUUGUUCAGCAACAGAGGAUUGAGCAUCA
B17: chr11:35231809:35232301:+|3pUTR|ENSG00000026508|msi1|FALSE|unique (ssRNA)
RNA: GGGAGUUCUACAGUCCGACGAUCACAACACCAAGAAUUGAUUUUGUAGCCAACAUUCAUUCAAUACUGUUAUAUCAGAGGAGUAGGAGAGAGGAAACAUUUGACUUAUCUGGAAAAGCAAAAUGUACUUAAGAAUAAGAAUAACAACAGAGGAUUGAGCAUCA
B18: ENSG00000198589:be:win_6351|CDS|ENSG00000198589|bound_else_gene|NA|bound_elsewhere_windowed (ssRNA)
RNA: GGGAGUUCUACAGUCCGACGAUCGCUGCAUGGAAAAUGGCUGUUCACAGAGAUACGAUCAAUCUUUUCUCGUCGUUAUCUUUUGCAAAAUACAGCCCUGGAGAUCUUUAUGGCAAACAGAGUUGCUGUGAUGUUCAACUUCCCCAACAGAGGAUUGAGCAUCA
B19: chr11:35230299:35231094:+|3pUTR|ENSG00000026508|msi1|total|mutant (ssRNA)
RNA: GGGAGUUCUACAGUCCGACGAUCGCCUGGGGAGUCCCUCAAAAGGUUAAAGGGAUUCCCAUCAUUGGAAUCUUAUCACCAGACCGGCAAGUUUAUGACCAAACAAGAGAGUACUGGCUUUAUCCUCUAACCUCAUAUUUUCUCCAACAGAGGAUUGAGCAUCA
B20: chr1:229632307:229632408:+|CDS|ENSG00000135763|unk|total|mutant (ssRNA)
RNA: GGGAGUUCUACAGUCCGACGAUCAUUUUAUAAGAAAAAGCUUGAACUGAAGGAAGAUAUUGUUGAAAGGCUUUGGAUCUAUACCGAUAACAUUUUACACCGCAGAAAAUUGCAGAAUCUCCUCAAGAAUGGAAAGACCAUUAACAACAGAGGAUUGAGCAUCA
B21: ENSG00000198589:be:win_3801|CDS|ENSG00000198589|bound_else_gene|NA|bound_elsewhere_windowed (ssRNA)
RNA: GGGAGUUCUACAGUCCGACGAUCUCAACCUCAUCGACAUGUGCUUGAGAUAUCAAGGCAACAUGAGCAGCCAGGGCAAGGAAUAGCACCAGAUGCAGUUAAUGGACAAAGGAGGGAUUCCAGAUCUACUGUGUUUCGUAUUCCCAACAGAGGAUUGAGCAUCA
B22: chr20:23354638:23354749:+|3pUTR|ENSG00000132661|unk|total|mutant (ssRNA)
RNA: GGGAGUUCUACAGUCCGACGAUCAAGUUCCCGGAGUCCCUUUCCUGAAUAUAUACUUGUUUGUCACCGUUUCCUUUUCAAAGCCGUAAACUUUUCUAUUUUUCUACUUGCCCAGCCGAGACUCUGAUUCUGGAAAUUCUGACACAACAGAGGAUUGAGCAUCA

Target: T1, UNK ZnF1-6 (called full-length)
Assay: nsRBNS (natural sequence RNA bind-n-seq); RBNS binding buffer (assumed for nsRBNS): 25 mM Tris pH 7.5, 150 mM KCl, 3 mM MgCl2, 0.01% Triton X-100, 500 ug/ml BSA, 20 U/ml SUPERase-In, 4 C; UNK is unkempt and MSI1 is Musashi-1; names of the RNAs are library labels; protein concentration not given here; high values mean tight binding

Compared with B1, B2 is higher in binding signal: 0.543 enrichment R for the first, 0.944 enrichment R for the second.

First: B3
Second: B4
The binding signal of the first is higher: 0.851 enrichment R for the first, 0.526 enrichment R for the second.

Compared with B5, B6 is higher in binding signal: 0.973 enrichment R for the first, 1.24 enrichment R for the second.

First: B7
Second: B8
The binding signal of the first is lower: 0.693 enrichment R for the first, 1.37 enrichment R for the second.

First: B9
Second: B10
The binding signal of the first is lower: 0.461 enrichment R for the first, 1.19 enrichment R for the second.

Going from B11 to B12, the binding signal rises from 0.763 enrichment R to 1.68 enrichment R.

Going from B13 to B14, the binding signal rises from 0.444 enrichment R to 0.496 enrichment R.

Compared with B15, B16 is lower in binding signal: 0.434 enrichment R for the first, 0.411 enrichment R for the second.

Compared with B17, B18 is lower in binding signal: 0.744 enrichment R for the first, 0.334 enrichment R for the second.

First: B19
Second: B20
The binding signal of the first is lower: 0.475 enrichment R for the first, 0.486 enrichment R for the second.

Compared with B21, B22 is lower in binding signal: 0.666 enrichment R for the first, 0.594 enrichment R for the second.
